Reference: the supplement of paper PMC4967469
The IC50 comes from the fitted curve, where viability falls to half of the control; a fit beyond the top or the lowest dose is shown as a bound at that dose. AUC, from the same fit, is the share of area under the viability curve across the 256-fold dose range: 1 means no effect, lower means more sensitive. For some assays here: The top dose, if marked as inferred, comes from the curve model; the source does not state it. For some assays here: Drugs with an entry number were screened twice under separate entries, and the two screens often disagree.

What was measured:
PAC-1 = compound: C=CCc1cccc(/C=N/NC(=O)CN2CCN(Cc3ccccc3)CC2)c1O [PAC-1]; experiment: Viability of human cancer cell lines after 72 h of drug (GDSC screen); details: top dose 2.56 µM
Protocol: (§1)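 Human cancer cell lines in 384-well plates, medium with 10% serum, drug for 72 h over a 256-fold dose range (nine 2-fold or five 4-fold steps up to the top dose). Adherent lines were fixed and stained with the nucleic acid dye Syto60, suspension lines read with resazurin; signal relative to control wells, capped at 0 and 100%. One two-parameter sigmoid per drug and line, fitted in a mixed model over all curves with the slope shared within a line.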

BMS-708163 = compound: NC(=O)[C@@H](CCC(F)(F)F)N(Cc1ccc(-c2ncon2)cc1F)S(=O)(=O)c1ccc(Cl)cc1 [BMS-708163]; experiment: as above; details: top dose 5 µM; screen: GDSC drug entry 1072; top dose inferred
Protocol: as §1

Row | Cell Line | AUC (PAC-1) | IC50 (PAC-1) | AUC (BMS-708163) | IC50 (BMS-708163)
1 | DBTRG-05MG (glioma, adherent) | 0.963 | > 2.56 µM | 0.941 | > 5 µM
2 | DK-MG (glioma, adherent) | 0.957 | > 2.56 µM | 0.927 | > 5 µM
3 | DMS-53 (small cell lung carcinoma, adherent) | 0.981 | > 2.56 µM | 0.913 | > 5 µM
4 | DMS-273 (small cell lung carcinoma, adherent) | 0.976 | > 2.56 µM | 0.985 | > 5 µM
5 | DOK (head and neck, adherent) | 0.96 | > 2.56 µM | 0.913 | > 5 µM
6 | DU-145 (prostate, adherent) | 0.982 | > 2.56 µM | 0.973 | > 5 µM
7 | Daoy (medulloblastoma, adherent) | 0.835 | 1.47 µM | 0.988 | > 5 µM
8 | Detroit562 (head and neck, adherent) | 0.988 | > 2.56 µM | 0.942 | > 5 µM
9 | DoTc2-4510 (cervix, adherent) | 0.938 | > 2.56 µM | 0.988 | > 5 µM
10 | EBC-1 (lung squamous cell carcinoma, adherent) | 0.978 | > 2.56 µM | 0.954 | > 5 µM
11 | ECC10 (stomach, suspension) | 0.833 | 1.76 µM | 0.98 | > 5 µM
12 | EFM-19 (breast, adherent) | 0.771 | 1.54 µM | 0.972 | > 5 µM
13 | EFM-192A (breast, adherent) | 0.963 | > 2.56 µM | 0.974 | > 5 µM
14 | EFO-21 (ovary, adherent) | 0.904 | > 2.56 µM | 0.964 | > 5 µM
15 | EFO-27 (ovary, adherent) | 0.882 | > 2.56 µM | 0.959 | > 5 µM
16 | EGI-1 (biliary tract, adherent) | 0.971 | > 2.56 µM | 0.953 | > 5 µM
17 | EHEB (lymphoid neoplasm, suspension) | 0.805 | 2.08 µM | 0.954 | > 5 µM
18 | EN (endometrium, adherent) | 0.977 | > 2.56 µM | 0.977 | > 5 µM
19 | EPLC-272H (lung squamous cell carcinoma, adherent) | 0.956 | > 2.56 µM | 0.943 | > 5 µM
20 | ESS-1 (endometrium, adherent) | 0.944 | > 2.56 µM | 0.972 | > 5 µM
21 | EW-7 (Ewing sarcoma, semi-adherent) | 0.9 | > 2.56 µM | 0.989 | > 5 µM
22 | FADU (head and neck, adherent) | 0.988 | > 2.56 µM | 0.982 | > 5 µM
23 | FTC-133 (thyroid, adherent) | 0.984 | > 2.56 µM | 0.932 | > 5 µM
24 | FU97 (stomach, adherent) | 0.954 | > 2.56 µM | 0.972 | > 5 µM
25 | FU-OV-1 (ovary, adherent) | 0.971 | > 2.56 µM | 0.947 | > 5 µM

Row | Cell Line | AUC (PAC-1) | IC50 (PAC-1) | AUC (BMS-708163) | IC50 (BMS-708163)
26 | G-292 Clone A141B1 (osteosarcoma, adherent) | 0.943 | > 2.56 µM | 0.968 | > 5 µM
27 | G-361 (melanoma, adherent) | 0.8 | 1.18 µM | 0.953 | > 5 µM
28 | G-401 (kidney, adherent) | 0.751 | 0.915 µM | 0.941 | > 5 µM
29 | G-402 (soft tissue, adherent) | 0.934 | > 2.56 µM | 0.939 | > 5 µM
30 | GAMG (glioma, adherent) | 0.978 | > 2.56 µM | 0.917 | > 5 µM
31 | GCT (soft tissue, adherent) | 0.982 | > 2.56 µM | 0.989 | > 5 µM
32 | GMS-10 (glioma, adherent) | 0.988 | > 2.56 µM | 0.943 | > 5 µM
33 | GP5d (large intestine, adherent) | 0.989 | > 2.56 µM | 0.991 | > 5 µM
34 | H4 (glioma, adherent) | 0.965 | > 2.56 µM | 0.986 | > 5 µM
35 | H290 (mesothelioma, adherent) | 0.916 | > 2.56 µM | 0.979 | > 5 µM
36 | H2369 (mesothelioma, adherent) | 0.956 | > 2.56 µM | 0.987 | > 5 µM
37 | H2373 (mesothelioma, adherent) | 0.974 | > 2.56 µM | 0.983 | > 5 µM
38 | H2461 (mesothelioma, adherent) | 0.978 | > 2.56 µM | 0.974 | > 5 µM
39 | H2591 (mesothelioma, adherent) | 0.958 | > 2.56 µM | 0.972 | > 5 µM
40 | H2595 (mesothelioma, adherent) | 0.928 | > 2.56 µM | 0.98 | > 5 µM
41 | H2722 (mesothelioma, adherent) | 0.939 | > 2.56 µM | 0.92 | > 5 µM
42 | H2731 (mesothelioma, adherent) | 0.984 | > 2.56 µM | 0.977 | > 5 µM
43 | H2795 (mesothelioma, adherent) | 0.975 | > 2.56 µM | 0.983 | > 5 µM
44 | H2803 (mesothelioma, adherent) | 0.921 | > 2.56 µM | 0.982 | > 5 µM
45 | H2804 (mesothelioma, adherent) | 0.92 | > 2.56 µM | 0.982 | > 5 µM
46 | H2818 (mesothelioma, adherent) | 0.95 | > 2.56 µM | 0.954 | > 5 µM
47 | H2869 (mesothelioma, adherent) | 0.942 | > 2.56 µM | 0.984 | > 5 µM
48 | H3118 (head and neck, adherent) | 0.832 | 1.85 µM | 0.983 | > 5 µM
49 | H3255 (lung adenocarcinoma, adherent) | 0.937 | > 2.56 µM | 0.938 | > 5 µM
50 | HARA (lung squamous cell carcinoma, adherent) | 0.95 | > 2.56 µM | 0.961 | > 5 µM
